Publication PMC11000209

Molecular target: His6-Ec.BAP (22–471) (E. coli (printed as Ec.)) [phosphatase: P00634]
Test: SEC

His6-Ec.BAP ([…]) (a stretch of the chain, sequence not shown) (enzyme; other documents disagree on this pair)
stoichiometry N: 4
